Data: article PMC9911399, “Two distinct binding modes provide the RNA-binding protein RbFox with extraordinary sequence specificity”
Numbering of substitutions follows the chain as printed; changes in the protein carry UniProt numbers. The list shows a part of the results.

T1: RBFOX1 RRM RbFoxmut (Fox-RRM*) (Homo sapiens, UniProt Q9NWB1 109-208, R118D;E147R;N151S;E152T)
T1 sequence: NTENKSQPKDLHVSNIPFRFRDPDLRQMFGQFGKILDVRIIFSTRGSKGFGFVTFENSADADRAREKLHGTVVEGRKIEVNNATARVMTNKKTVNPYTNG

B1: GCUUAAC (DNA:RNA)
RNA: GGGAGACCGGAAUUCAGAUUGUCCGCUUAACUUAAAUCCCGUCGUAGCCACCA
DNA 1: CAATCTGAATTCCGGTCTCCC
DNA 2: TGGTGGCTACGACGGGATT
B2: CCAUAUU (DNA:RNA)
RNA: B1 RNA with G25C, U27A, A30U, C31U
DNA 1: CAATCTGAATTCCGGTCTCCC
DNA 2: TGGTGGCTACGACGGGATT
B3: UACUGAG (DNA:RNA)
RNA: B1 RNA with G25U, C26A, U27C, A29G, C31G
DNA 1: CAATCTGAATTCCGGTCTCCC
DNA 2: TGGTGGCTACGACGGGATT
B4: CCUAUAA (DNA:RNA)
RNA: B1 RNA with G25C, U28A, A29U, C31A
DNA 1: CAATCTGAATTCCGGTCTCCC
DNA 2: TGGTGGCTACGACGGGATT
B5: CUGGCAG (DNA:RNA)
RNA: B1 RNA with G25C, C26U, U27G, U28G, A29C, C31G
DNA 1: CAATCTGAATTCCGGTCTCCC
DNA 2: TGGTGGCTACGACGGGATT
B6: CCUCCCG (DNA:RNA)
RNA: B1 RNA with G25C, U28C, A29C, A30C, C31G
DNA 1: CAATCTGAATTCCGGTCTCCC
DNA 2: TGGTGGCTACGACGGGATT
B7: CGGGUCA (DNA:RNA)
RNA: GGGAGACCGGAAUUCAGAUUGUCCCGGGUCAUUAAAUCCCGUCGUAGCCACCA
DNA 1: CAATCTGAATTCCGGTCTCCC
DNA 2: TGGTGGCTACGACGGGATT
B8: GUGCGUA (DNA:RNA)
RNA: B7 RNA with C25G, G26U, G28C, U29G, C30U
DNA 1: CAATCTGAATTCCGGTCTCCC
DNA 2: TGGTGGCTACGACGGGATT
B9: GAGCGCA (DNA:RNA)
RNA: B7 RNA with C25G, G26A, G28C, U29G
DNA 1: CAATCTGAATTCCGGTCTCCC
DNA 2: TGGTGGCTACGACGGGATT
B10: UUACGGA (DNA:RNA)
RNA: B7 RNA with C25U, G26U, G27A, G28C, U29G, C30G
DNA 1: CAATCTGAATTCCGGTCTCCC
DNA 2: TGGTGGCTACGACGGGATT
B11: AUUACGG (DNA:RNA)
RNA: B1 RNA with G25A, C26U, U28A, A29C, A30G, C31G
DNA 1: CAATCTGAATTCCGGTCTCCC
DNA 2: TGGTGGCTACGACGGGATT
B12: CAUGCCC (DNA:RNA)
RNA: B7 RNA with G26A, G27U, U29C, A31C
DNA 1: CAATCTGAATTCCGGTCTCCC
DNA 2: TGGTGGCTACGACGGGATT
B13: CGAAGAU (DNA:RNA)
RNA: B7 RNA with G27A, G28A, U29G, C30A, A31U
DNA 1: CAATCTGAATTCCGGTCTCCC
DNA 2: TGGTGGCTACGACGGGATT
B14: GAGCUCC (DNA:RNA)
RNA: B7 RNA with C25G, G26A, G28C, A31C
DNA 1: CAATCTGAATTCCGGTCTCCC
DNA 2: TGGTGGCTACGACGGGATT
B15: AGCUCAC (DNA:RNA)
RNA: B1 RNA with G25A, C26G, U27C, A29C
DNA 1: CAATCTGAATTCCGGTCTCCC
DNA 2: TGGTGGCTACGACGGGATT
B16: CGACGAG (DNA:RNA)
RNA: B7 RNA with G27A, G28C, U29G, C30A, A31G
DNA 1: CAATCTGAATTCCGGTCTCCC
DNA 2: TGGTGGCTACGACGGGATT
B17: CUACCUG (DNA:RNA)
RNA: B7 RNA with G26U, G27A, G28C, U29C, C30U, A31G
DNA 1: CAATCTGAATTCCGGTCTCCC
DNA 2: TGGTGGCTACGACGGGATT
B18: UCUCCCG (DNA:RNA)
RNA: B1 RNA with G25U, U28C, A29C, A30C, C31G
DNA 1: CAATCTGAATTCCGGTCTCCC
DNA 2: TGGTGGCTACGACGGGATT
B19: UCAUGCU (DNA:RNA)
RNA: B1 RNA with G25U, U27A, A29G, A30C, C31U
DNA 1: CAATCTGAATTCCGGTCTCCC
DNA 2: TGGTGGCTACGACGGGATT
B20: GUAGGCG (DNA:RNA)
RNA: B7 RNA with C25G, G26U, G27A, U29G, A31G
DNA 1: CAATCTGAATTCCGGTCTCCC
DNA 2: TGGTGGCTACGACGGGATT

Biological target: T1, RBFOX1 RRM RbFoxmut (Fox-RRM*)
Assay: EMSA; HiTS-Eq, 1 nM pool, 10 min; buffer printed only for the single-RNA assays: 10 mM Tris pH 7.5, 150 mM NaCl, 3.4 mM EDTA, 0.001% NP-40, 30 C
Conditions: tags: His6 N-terminal (pET28a); label: 5' 32P
Procedure, shortened: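 Purified RbFox RRM (wild type or mutant) was equilibrated for 10 min in 50 µL with 1 nM of a 5′-radiolabelled pool of RNA with 7 randomized nucleotides, its flanks annealed to DNA oligonucleotides, across increasing protein concentrations. Free RNA was separated by 8% native PAGE, excised, reverse-transcribed, PCR-barcoded and sequenced on an Illumina HiSeq 2500. Relative association constants came from read-count changes of each variant against the control reaction, normalised to the cognate motif.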

Compared with B1, B2 is lower in binding signal: 0.0945 KA relative to UGCAUGU for the first, 0.0844 KA relative to UGCAUGU for the second.

First: B3
Second: B4
The binding signal of the first is lower: 0.0893 KA relative to UGCAUGU for the first, 0.103 KA relative to UGCAUGU for the second.

First: B5
Second: B6
The binding signal of the first is higher: 0.117 KA relative to UGCAUGU for the first, 0.0557 KA relative to UGCAUGU for the second.

First: B7
Second: B8
The binding signal of the first is lower: 0.0952 KA relative to UGCAUGU for the first, 0.162 KA relative to UGCAUGU for the second.

First: B9
Second: B10
The binding signal of the first is higher: 0.145 KA relative to UGCAUGU for the first, 0.0683 KA relative to UGCAUGU for the second.

First: B11
Second: B12
The binding signal of the first is lower: 0.0693 KA relative to UGCAUGU for the first, 0.11 KA relative to UGCAUGU for the second.

Compared with B13, B14 is lower in binding signal: 0.088 KA relative to UGCAUGU for the first, 0.0323 KA relative to UGCAUGU for the second.

Compared with B15, B16 is higher in binding signal: 0.0776 KA relative to UGCAUGU for the first, 0.114 KA relative to UGCAUGU for the second.

First: B17
Second: B18
The binding signal of the first is higher: 0.0771 KA relative to UGCAUGU for the first, 0.0736 KA relative to UGCAUGU for the second.

First: B19
Second: B20
The binding signal of the first is lower: 0.114 KA relative to UGCAUGU for the first, 0.126 KA relative to UGCAUGU for the second.
